Data on 1 molecule can be found in PMC3197607.

Protein sequences, listed by entry. Tags and fused reporters are not part of them.
UniProt Q13547: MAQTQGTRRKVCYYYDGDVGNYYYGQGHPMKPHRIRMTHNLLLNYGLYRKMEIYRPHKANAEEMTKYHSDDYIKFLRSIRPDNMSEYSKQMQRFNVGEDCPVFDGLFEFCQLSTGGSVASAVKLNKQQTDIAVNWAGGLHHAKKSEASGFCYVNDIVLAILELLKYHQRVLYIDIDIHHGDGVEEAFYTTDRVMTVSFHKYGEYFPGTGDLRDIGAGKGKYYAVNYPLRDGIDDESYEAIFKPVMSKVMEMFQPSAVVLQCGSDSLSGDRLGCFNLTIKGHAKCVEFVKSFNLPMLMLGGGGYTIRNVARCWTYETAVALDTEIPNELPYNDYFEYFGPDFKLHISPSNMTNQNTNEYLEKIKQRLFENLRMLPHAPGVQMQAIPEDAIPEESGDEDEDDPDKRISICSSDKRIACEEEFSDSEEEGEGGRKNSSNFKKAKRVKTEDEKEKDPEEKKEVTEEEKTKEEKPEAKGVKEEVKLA

Assay [1] has as its target human p53 (human (endogenous in KB, HEK293, HCT116)) (UniProt P04637). The assay is described as follows: co-IP; endogenous proteins in NP-40 buffer lysates (20 mM Tris-HCl pH 7.4, 100 mM NaCl, 0.5 mM EDTA, 0.5% NP-40) of human cell lines (KB, HEK293, HCT116, H1299); 2 mg total protein with 1 µg antibody (anti-p53, anti-HDAC1 or anti-Sin3B), immunoblot of the partner; KB cells also after 1.0 µg/ml Adriamycin. On the technique in general: Immunoblotting shows a protein as a band on a membrane.

For assay [2], the target named is HDAC1 (human (endogenous in KB, H1299)) (UniProt Q13547). The assay is described as above.

No constants are given. Whether binding was seen depends on the method and setting. In cells and extracts the contact can be indirect. Some binding calls cover weakened binding; strength is not graded here.

B1: human Sin3B (protein, UniProt O75182 1-1162)
chain: MAHAGGGSGGSGAGGPAGRGLSGARWGRSGSAGHEKLPVHVEDALTYLDQVKIRFGSDPATYNGFLEIMKEFKSQSIDTPGVIRRVSQLFHEHPDLIVGFNAFLPLGYRIDIPKNGKLNIQSPLTSQENSHNHGDGAEDFKQQVPYKEDKPQVPLESDSVEFNNAISYVNKIKTRFLDHPEIYRSFLEILHTYQKEQLNTRGRPFRGMSEEEVFTEVANLFRGQEDLLSEFGQFLPEAKRSLFTGNGPCEMHSVQKNEHDKTPEHSRKRSRPSLLRPVSAPAKKKMKLRGTKDLSIAAVGKYGTLQEFSFFDKVRRVLKSQEVYENFLRCIALFNQELVSGSELLQLVSPFLGKFPELFAQFKSFLGVKELSFAPPMSDRSGDGISREIDYASCKRIGSSYRALPKTYQQPKCSGRTAICKELDHWTLLQGSWTDDYCMSKFKNTCWIPGYSAGVLNDTWVSFPSWSEDSTFVSSKKTPYEEQLHRCEDERFELDVVLETNLATIRVLESVQKKLSRMAPEDQEKFRLDDSLGGTSEVIQRRAIYRIYGDKAPEIIESLKKNPVTAVPVVLKRLKAKEEEWREAQQGFNKIWREQYEKAYLKSLDHQAVNFKQNDTKALRSKSLLNEIESVYDEHQEQHSEGRSAPSSEPHLIFVYEDRQILEDAAALISYYVKRQPAIQKEDQGTIHQLLHQFVPSLFFSQQLDLGASEESADEDRDSPQGQTTDPSERKKPAPGPHSSPPEEKGAFGDAPATEQPPLPPPAPHKPLDDVYSLFFANNNWYFFLRLHQTLCSRLLKIYRQAQKQLLEYRTEKEREKLLCEGRREKGSDPAMELRLKQPSEVELEEYYPAFLDMVRSLLEGSIDPTQYEDTLREMFTIHAYVGFTMDKLVQNIARQLHHLVSDDVCLKVVELYLNEKKRGAAGGNLSSRCVRAARETSYQWKAERCMADENCFKVMFLQRKGQVIMTIELLDTEEAQTEDPVEVQHLARYVEQYVGTEGASSSPTEGFLLKPVFLQRNLKKFRRRWQSEQARALRGEARSSWKRLVGVESACDVDCRFKLSTHKMVFIVNSEDYMYRRGTLCRAKQVQPLVLLRHHQHFEEWHSRWLEDNVTVEAASLVQDWLMGEEDEDMVPCKTLCETVHVHGLPVTRYRVQYSRRPASP
With B1, the binding entry in assay [1] and in assay [2] was “binds” in each case.
